# Results: PubChem BioAssay AID686978 (National Center for Advancing Translational Sciences (NCATS), 2013)
# Among all 420,000 compounds or so, about 64,000 (15%) were called active. The shares of active, inactive and inconclusive entries below differ from those in the screen. Calls follow the shape of the dose curve; as a rule, active = well fitted inhibition curve with a large enough effect; inconclusive = small, poorly fitted or top-dose-only effect; inactive = flat fitted curve, though single readings scatter. Potencies of inconclusive entries are left out as doubtful fits.
# Experiment: qHTS for Inhibitors of human tyrosyl-DNA phosphodiesterase 1 (TDP1): qHTS in cells in absence of CPT; also: nearly all actives have a fitted effect of over 55% in size
# Conditions: DT40 Tdp1-/- hTDP1 cells, no CPT, ATP luminescence, 48 h; activity change, negative = growth inhibition: at 46.2 µM (top of the series)
# Summary of the method: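 Growth of hTDP1-complemented DT40 Tdp1-knockout cells is measured by ATP luminescence after at least 48 hr compound exposure at 37 °C, with DMSO substituting for the 20 nM CPT used in the parallel screen.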
# % is scaled to controls: 0 for no effect and ±100 for the full control effect; potency is read from the fitted curve at half-maximal effect; tags tell the direction and shape of the fitted curve.
SMILES,Potency,"activity change, negative = growth inhibition"
Cc1ccc(Sc2ncccc2COC(=O)Nc2ccccc2)cc1,"inconclusive [inhibitor, single point]",–
Cc1nc(-c2ccc(S(=O)(=O)N(Cc3ccccc3)C(C)C)cc2)co1,active: 14.6 µM,–
COc1cc(S(=O)(=O)Nc2ccc(C)cc2)ccc1N=Cc1c(C)[nH]n(-c2ccc(C)cc2)c1=O,active: 13 µM,–
COc1cc(NC(=O)COC(=O)CCc2cc(OC)c(OC)c(OC)c2)cc(OC)c1,–,inactive: -2.78%
CC12CN(Cc3ccccc3)CC(C)(CN(Cc3ccccc3)C1)C2=NO,"inconclusive [inhibitor, single point]",–
CC(C)OCCCNC(=O)CCCn1c(SCC(N)=O)nc2c(sc3ccccc32)c1=O,–,inactive: -29.4%
Cc1ccc(CN2CCN(CC(=O)N/N=C/c3ccc(C)o3)CC2)cc1,"inconclusive [inhibitor, single point]",–
Fc1ccccc1/C=N/Nc1cc(N2CCCCC2)ncn1,"inconclusive [inhibitor, single point]",–
CC(=O)/C=C(\C)N=Nc1c(O)[nH]c2ccccc12,–,inactive: -3.99%
COc1ccccc1NC(=O)N1CCN(c2cccc(C(F)(F)F)c2)CC1,"inconclusive [inhibitor, single point]",–
COc1cc(C(=O)Nc2ccc(N3CCCS3(=O)=O)cc2)c([N+](=O)[O-])cc1OC,–,inactive: -13.9%
CC1CCc2cc(F)cc3c(O)c(C(=O)NCCN(C)C)c(=O)n1c23 (stereo not given),active: 18.4 µM,–
CCOc1ccc(-c2nnc3ccc(SCC(=O)N4CCN(c5ccccc5)CC4)nn23)cc1,"inconclusive [inhibitor, partial curve]",–
C=CCN=C1SC(C)C(=O)N1S(=O)(=O)c1ccccc1 (stereo not given),"inconclusive [inhibitor, single point]",–
CCOc1ccc(CCNC(=O)c2ccc3c(c2)nc2n3CCOC2)cc1OCC,"inconclusive [inhibitor, single point]",–
O=C(CSc1nc2c([nH]c3ccccc32)c(=O)n1-c1ccc(F)cc1)NCc1ccc(F)cc1,active: 14.6 µM,–
Cc1ccc(C(=O)c2c3ccccc3[n+]([O-])n2CCC(=O)O)cc1,–,inactive: -4.47%
O=C(COc1ccc(S(=O)(=O)N2CCCC2)cc1)Nc1ccc(F)cc1,–,inactive: -22.8%
Cc1ccc(Cl)cc1NC(=O)C1CCN(C(=O)c2cnn(-c3ccccc3)c2-n2cccc2)CC1,active: 20.6 µM,–
C(=C\c1ccccc1)/CN1CCN(C(c2nnnn2C2CCCC2)C2CC2)CC1 (stereo not given),active: 13 µM,–
Cc1cc(NC(=O)CN2C(=O)/C(=C/c3cccc(Br)c3)SC2=S)no1,"inconclusive [inhibitor, single point]",–
COc1cc(/C=N\Nc2nc(-c3cccs3)c(NC(C)=O)s2)ccc1O,"inconclusive [inhibitor, single point]",–
Cc1ccc(OCC(=O)O/N=C(\N)Cc2ccc([N+](=O)[O-])cc2)cc1C,–,inactive: 0.279%

SMILES,Potency,"activity change, negative = growth inhibition"
CN(Cc1ccccc1)C(=O)Nc1ccc(Cl)cc1,–,inactive: -18.7%
CCOC(=O)Cn1c(=N)n(Cc2ccccc2)c2ccccc21,–,inactive: -24.9%
COC(=O)[C@]12CCCCC=C1N(Cc1ccc(Cl)cc1Cl)C(=O)[C@H](CC(=O)NCc1cccc3ccccc13)C2,"inconclusive [inhibitor, single point]",–
Cc1nc(CS(=O)(=O)c2ccccc2)cc(N2CCOCC2)n1,active: 9.2 µM,–
CC(=O)c1cccc(NC(=O)COc2ccccc2C(=O)c2cc(C#N)c(=O)n(C3CCCCC3)c2)c1,active: 11.6 µM,–
O=C(CCc1ccccc1)Nc1nnc(-c2ccc3c(c2)CCCC3)o1,"inconclusive [inhibitor, single point]",–
CN(Cc1ccccc1)S(=O)(=O)c1ccc(Cl)c(C(=O)N2CCC2)c1,"inconclusive [inhibitor, single point]",–
CCOC(=O)C1=C(C)NC(C)=C(C(=O)OCC)C1C(=O)OCC(=O)Nc1ccc(NC(C)=O)cc1,–,inconclusive: -33.6% [inhibitor]
Cc1noc(C)c1COc1ccc(C(=O)N2CCCC(C(F)(F)F)C2)cc1 (stereo not given),"inconclusive [inhibitor, single point]",–
CCNC(=S)N1CCN(c2nc(-c3cccc(OC)c3)cs2)CC1,active: 14.6 µM,–
CC(=O)c1cccc(NC(=O)C(C)n2c(=O)cc(-c3ccccc3)c3c(C)nn(C)c32)c1 (stereo not given),"inconclusive [inhibitor, single point]",–
O=C(NCc1nnc2n1CCN(Cc1cc3c(cc1Cl)OCO3)CC2)c1cccc(F)c1,"inconclusive [inhibitor, single point]",–
CC(C)CCNC(=O)C(C)N(C(=O)c1snc(C(N)=O)c1N)c1cnc2ccccc2c1 (stereo not given),"inconclusive [inhibitor, single point]",–
COc1cccc(C(=O)CN2CCN(S(=O)(=O)c3cccc([N+](=O)[O-])c3)CC2)c1,"inconclusive [inhibitor, single point]",–
CC1CCN(C(=O)c2cc(S(=O)(=O)N3CCCCC3)c[nH]2)CC1,"inconclusive [inhibitor, single point]",–
COc1ccc2c(-c3ccc(S(N)(=O)=O)cc3)c(-c3ccc(S(C)(=O)=O)cc3)sc2c1,"inconclusive [inhibitor, single point]",–
Cc1ccn(C(=O)c2ccc(NC(=O)CC(C)C)cc2)n1,–,inactive: 2.55%
CCn1c(=O)c(C(=O)Nc2ccccn2)c(O)c2ccccc21,"inconclusive [inhibitor, single point]",–
O=C(O)c1ccn2c(C(=O)c3ccccc3)c(-c3ccccc3)cc2c1,–,inactive: -11.5%
Cc1ccccc1-c1cnc(-c2ccncc2)nc1C1CCCN(Cc2ccccc2O)C1 (stereo not given),"inconclusive [inhibitor, single point]",–
Cc1ccc(NC(=O)CCN2CCc3ccccc3C2)cc1,–,inconclusive: -23.4% [inhibitor]
Cc1cc(C)c(C(=O)COC(=O)c2cccc(S(=O)(=O)N3CCOCC3)c2)cc1C,"inconclusive [inhibitor, single point]",–
